Our source for the result_ITMP values is paper PMC13083723 (Patterns, 2026).

The structures appear in SMILES notation. Out of some 5,400 compounds screened, about 190 (3.5%) showed an effect of 50% or more. The list shows a part of the results.

The experiment deals with Vero-E6. Description: primary screen, phospholipidosis by LipidTOX staining; higher = more effect of the substance. As to conditions: 10 µM. The method in brief: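 Single-concentration screen at 10 μM, with DMSO 0.1 v/v % and amiodarone 10 μM as controls. Read-out is LipidTOX Red phospholipid staining, which tolerates aldehyde fixation, in Vero-E6 cells.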
As for `NCCCNCCCCNCCCN`, the result_ITMP is on record as 0.55%. Take `CN(C)C/C=C(/c1ccc(Br)cc1)c1cccnc1`: the result_ITMP came to 15.4%. In the case of `CCOc1ccc2ccccc2c1C(=O)N[C@@H]1C(=O)N2[C@@H]1SC(C)(C)[C@@H]2C(=O)O` it was -1.91%; in that of `C/C=C/C=C/C(=O)O`, -3.82%. In the case of `CCCC(=O)O[C@]1(C(=O)CCl)[C@@H](C)C[C@H]2[C@@H]3CCC4=CC(=O)C=C[C@]4(C)[C@@]3(F)C(=O)C[C@@]21C` it was -1.95%; in that of `CO[C@@]12[C@@H]3NC3CN1C1=C(C(=O)C(N)=C(C)C1=O)[C@@H]2COC(N)=O` (some centres unmarked), 0.39%; in that of `N#C/C(=C\c1cn(-c2ccccc2)c2ccccc12)C(=O)O`, -1.05%.

Consider `Cn1cnc2c1c(=O)[nH]c(=O)n2C`, for which the result_ITMP is reported as -4.01%.

Turning to `CC(C)NCC(O)COc1ccc(CC(N)=O)cc1` (centres unmarked) [R4A_0002533_001 / SPE_A20239487], the result_ITMP is recorded as -2.01%. In the case of `CC1=NN(c2ccccc2)C(=O)C1` it was -6.74%; in that of `O=C(OCC(O)CO)c1ccccc1Nc1ccnc2c(C(F)(F)F)cccc12` (centres unmarked), -5.11%. With `Cc1cccc(NC(=O)CN2CCC(c3ccccn3)CC2)c1` the figure was -0.98%; with `Cc1ccc(S(N)(=O)=O)cc1`, 0.17%; with `O=C1c2ccccc2CCC1CNCCc1ccc(O)cc1` (centres unmarked), 2.1%. In the case of `O=C(O)c1ccc(O)c2ncccc12` it was -2.1%; in that of `COc1cc2ncnc(Nc3ccc(O)c(Br)c3)c2cc1OC`, 4.01%; in that of `CN1C(=O)N(c2ccc(C#N)c(C(F)(F)F)c2)C(=O)[C@]1(CO)c1ccccc1`, -2.15%. As for `O=c1c(-c2ccccc2)c1-c1ccccc1`, the result_ITMP is on record as -4.48%.

For the compound `COc1cc(-c2cc(-c3cccc(O)c3)cnc2N)cc(OC)c1OC`, the result_ITMP is reported as 0.12%.

On to `CCOC(=O)N1CSCC1C(=O)O` (centres unmarked), for which the result_ITMP is given as -3.59%. In the case of `NC(=O)c1cc[n+](CC2=C(C(=O)[O-])N3C(=O)[C@@H](NC(=O)[C@@H](c4ccccc4)S(=O)(=O)[O-])[C@H]3SC2)cc1` it was 4.59%.

On to `O=c1cccc2n1C[C@@H]1CNC[C@H]2C1`, for which the result_ITMP was 0.37%. `Cc1ccc(C(C)C)c(O)c1`: the result_ITMP was -2.22%.

With `CCCC(=O)Nc1cccc(NC(=O)c2ccccc2Br)c1`, the result_ITMP is listed as -1.39%.

`CCCCN1CC(O)C(O)C(O)C1CO` (centres unmarked): the result_ITMP is -4.4%.

On to `CCCCC[C@H](O)/C=C/[C@@H]1[C@H]2C/C(=C/CCCC(=O)[O-])O[C@H]2C[C@H]1O`, for which the result_ITMP was 0.37%. With `CO[C@H]1C[C@@H]2CC[C@@H](C)[C@@](O)(O2)C(=O)C(=O)N2CCCC[C@H]2C(=O)O[C@H]([C@H](C)C[C@@H]2CC[C@H](n3cnnn3)[C@H](OC)C2)CC(=O)[C@H](C)/C=C(\C)[C@@H](O)[C@@H](OC)C(=O)[C@H](C)C[C@H](C)/C=C/C=C/C=C/1C` the figure was -4.35%; with `Cc1cccc(C)c1NC(=O)CN1CCN(CCCC(c2ccc(F)cc2)c2ccc(F)cc2)CC1`, 52.6%; with `Cc1cc(Nc2cc(CN3CCOCC3)c3nc(C)c(Cc4ccc(Cl)cc4F)n3n2)[nH]n1`, 13%. On to `C=C1CC[C@H](O)C/C1=C/C=C1\CCC[C@]2(C)C([C@H](C)/C=C/[C@H](C)C(C)C)CC[C@@H]12` (some centres unmarked), for which the result_ITMP is on record as -2.68%.

On to `CCNCCCNCCCCNCCCNCC`, for which the result_ITMP is -2.17%. With `CC(CCCCC(=O)Nc1ccc(C(F)(F)F)cc1)NCCc1c[nH]cn1` (centres unmarked) the figure was -3.87%; with `CN(C)C(=O)c1cc2cnc(Nc3ccc(N4CCNCC4)cn3)nc2n1C1CCCC1`, 16.3%; with `CC/C=C(\C(=O)N[C@@H]1C(=O)N2C(C(=O)OCOC(=O)C(C)(C)C)=C(COC(N)=O)CS[C@H]12)c1csc(N)n1`, -4.26%. With `C=CC(C)(O)CCC=C(C)C` (centres unmarked) the figure was -8.91%. In the case of `CC[C@@]1(O)C(=O)OCc2c1cc1n(c2=O)Cc2cc3c(CN(C)C)c(O)ccc3nc2-1` it was 0.11%. As to `Nc1nnc(-c2cccc(Cl)c2Cl)c(N)n1`, the result_ITMP was -2.56%. In the case of `CCOC(=O)N[C@@H]1CC[C@@H]2[C@@H](C1)C[C@H]1C(=O)O[C@H](C)[C@H]1[C@H]2/C=C/c1ccc(-c2cccc(F)c2)cn1` it was -3.79%; in that of `C[C@H](N/C(=N\C#N)Nc1cccc2ncccc12)c1ccccc1`, -7.08%. With `NC(C(=O)O)c1ccc(C(=O)O)c(C(=O)O)c1` (racemic) the figure was -2.14%.

As for `CCCCCS(=O)(=O)CCCCCCCCCCn1c(-c2ccc(O)cc2)c(C)c2cc(O)ccc21`, the result_ITMP is on record as -3.27%.

As for `CCCCOc1ccc(-c2cncc(C(=O)NCc3cccnc3N3CCOCC3)c2)cc1Cl`, the result_ITMP amounted to 3.79%. With `CN1C(=O)N(c2cc(Cl)cc(Cl)c2)C(=O)[C@]12CN(Cc1cc(C(=O)O)cs1)C[C@H]2c1ccc(C#N)cc1` the figure was 0.21%. In the case of `Clc1cc(Cl)c(OCC#CI)cc1Cl` it was 7.92%.

On to `Nc1nc(=O)[nH]cc1F`, for which the result_ITMP is -1.94%.

Regarding `CCN1CCN(c2ccc(Nc3cc(N(C)C(=O)Nc4c(Cl)c(OC)cc(OC)c4Cl)ncn3)cc2)CC1`, the result_ITMP came to 3.12%.

For `Oc1cc(O)cc(/C=C/c2ccc(O)c(O)c2)c1`, the result_ITMP is on record as -1.23%. In the case of `O=C(NC1CC1)c1cc(-c2cccs2)on1` it was -4.98%.

As for `OC[C@@H](O)[C@@H](O)[C@H](O)[C@@H](O)CO`, the result_ITMP is on record as 1.05%. In the case of `COc1cc2c(cc1Cc1cccc(Cl)c1F)c(=O)c(C(=O)O)cn2[C@H](CO)C(C)C` it was -4.09%; in that of `COc1ccc2cc3[n+](cc2c1OC)CCc1cc2c(cc1-3)OCO2`, 0.6%. `Nc1ncnc2c1ncn2[C@H]1CC[C@@H](CO)O1`: the result_ITMP is reported as -3.8%.

Regarding `Nc1ncc(Cc2ccc(Br)cc2)s1`, the result_ITMP was -1.9%. With `Cc1ccc2c(c1)[C@]13CCCC[C@@H]1[C@H](C2)N(C)CC3` the figure was 3.88%; with `Nc1ncnc2c1ncn2[C@@H]1O[C@H](CO)C[C@H]1O`, -8.96%; with `CC(C)n1c(=O)n(C(=O)NC2CC3CCC(C2)N3C)c2ccccc21` (centres unmarked), 15.5%. With `O=C(CCCN1CCC2(CC1)C(=O)NCN2c1ccccc1)c1ccc(F)cc1` the figure was 20.3%; with `N#CCC(=O)c1ccccc1`, -3.41%; with `NC(=O)c1cc[n+](CC2=C(C(=O)[O-])N3C(=O)[C@@H](NC(=O)Cc4cccs4)[C@H]3SC2)cc1`, -5.69%.
